# Laboratory results as given in the supplement of paper PMC8728848.
# This is one part of the list.
# B1: BC2LB (Burholderia cenocepacia), B4EH85_BURCJ (protein)
# chain: MGSSHHHHHHSSGENLYFQGHMSQPFTHDDLYALLQLAGNDATAVQANGDQAVLDRMRQFMTAQLVEKLPQYDVFVDIATIPYSFDVGSWQNKVKTDAAGEVVACTVTWAGAPGVLPGAAAKFGVGAVVNYFSKATPH
# Legend:
# Test in all cases: glycan array binding signal (z-score within array); higher = stronger binding
# Conditions in all cases: glycan notation: IUPAC condensed, linker removed
# [1] = molecular target: Neu5Ac(a2-3)Gal(b1-3)GlcNAc(b1-6)GalNAc
# In short: (§1)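 Arrays were curated from the Consortium for Functional Glycomics database, 3228 in total, and kept only where the protein sequence was available. Binding is expressed as a within-array Z-score. This score was averaged across arrays of the same protein sequence at different concentrations or buffers and across linkers, and negative values can be read as non-binding.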
# [2] = molecular target: Neu5Ac(a2-3)Gal(b1-3)GlcNAc6S
# In short: as §1
# [3] = molecular target: Neu5Ac(a2-3)Gal(b1-3)[Fuc(a1-4)]GlcNAc
# In short: as §1
# [4] = molecular target: Neu5Ac(a2-3)Gal(b1-3)[Fuc(a1-4)]GlcNAc(b1-3)Gal(b1-3)[Fuc(a1-4)]GlcNAc
# In short: as §1
# [5] = molecular target: Neu5Ac(a2-3)Gal(b1-3)[Fuc(a1-4)]GlcNAc(b1-3)Gal(b1-4)[Fuc(a1-3)]GlcNAc
# In short: as §1
# [6] = molecular target: Neu5Ac(a2-3)Gal(b1-3)[GlcNAc(b1-6)]GalNAc
# In short: as §1
# [7] = molecular target: Neu5Ac(a2-3)Gal(b1-3)[Neu5Ac(a2-6)]GalNAc
# In short: as §1
# [8] = molecular target: Neu5Ac(a2-3)Gal(b1-3)[Neu5Ac(a2-6)]GlcNAc(b1-3)[Fuc(a1-3)[Gal(b1-4)]GlcNAc(b1-6)]Gal(b1-4)Glc
# In short: as §1
# [9] = molecular target: Neu5Ac(a2-3)Gal(b1-3)]Neu5Ac(a2-3)Gal(b1-4)]GlcNAc
# In short: as §1
# Neu5Ac(a2-3)Gal(b1-4)Glc = molecular target: Neu5Ac(a2-3)Gal(b1-4)Glc
# In short: as §1
# [10] = molecular target: Neu5Ac(a2-3)Gal(b1-4)GlcNAc
# In short: as §1
# [11] = molecular target: Neu5Ac(a2-3)Gal(b1-4)GlcNAc(b1-2)Man
# In short: as §1
# [12] = molecular target: Neu5Ac(a2-3)Gal(b1-4)GlcNAc(b1-2)Man(a1-3)[GlcNAc(b1-4)][Neu5Ac(a2-3)Gal(b1-4)GlcNAc(b1-2)Man(a1-6)]Man(b1-4)GlcNAc(b1-4)GlcNAc
# In short: as §1
# [13] = molecular target: Neu5Ac(a2-3)Gal(b1-4)GlcNAc(b1-2)Man(a1-3)[Neu5Ac(a2-3)Gal(b1-4)GlcNAc(b1-2)Man(a1-6)]Man(b1-4)GlcNAc(b1-4)GlcNAc
# In short: as §1
# [14] = molecular target: Neu5Ac(a2-3)Gal(b1-4)GlcNAc(b1-2)Man(a1-3)[Neu5Ac(a2-3)Gal(b1-4)GlcNAc(b1-2)Man(a1-6)]Man(b1-4)GlcNAc(b1-4)[Fuc(a1-6)]GlcNAc
# In short: as §1
# [15] = molecular target: Neu5Ac(a2-3)Gal(b1-4)GlcNAc(b1-2)Man(a1-3)[Neu5Ac(a2-6)Gal(b1-4)GlcNAc(b1-2)Man(a1-6)]Man(b1-4)GlcNAc(b1-4)GlcNAc
# In short: as §1
# [16] = molecular target: Neu5Ac(a2-3)Gal(b1-4)GlcNAc(b1-2)[Neu5Ac(a2-3)Gal(b1-4)GlcNAc(b1-4)]Man(a1-3)[GlcNAc(b1-4)][Neu5Ac(a2-3)Gal(b1-4)GlcNAc(b1-2)[Neu5Ac(a2-3)Gal(b1-4)GlcNAc(b1-6)]Man(a1-6)]Man(b1-4)GlcNAc(b1-4)GlcNAc
# In short: as §1
# [17] = molecular target: Neu5Ac(a2-3)Gal(b1-4)GlcNAc(b1-2)[Neu5Ac(a2-3)Gal(b1-4)GlcNAc(b1-4)]Man(a1-3)[GlcNAc(b1-4)][Neu5Ac(a2-3)Gal(b1-4)GlcNAc(b1-4)Man(a1-6)]Man(b1-4)GlcNAc(b1-4)GlcNAc
# In short: as §1
# [18] = molecular target: Neu5Ac(a2-3)Gal(b1-4)GlcNAc(b1-2)[Neu5Ac(a2-3)Gal(b1-4)GlcNAc(b1-6)]Man(a1-6)[Neu5Ac(a2-3)Gal(b1-4)GlcNAc(b1-2)Man(a1-3)][GlcNAc(b1-4)]Man(b1-4)GlcNAc(b1-4)GlcNAc
# In short: as §1
# [19] = molecular target: Neu5Ac(a2-3)Gal(b1-4)GlcNAc(b1-3)Gal
# In short: as §1
# [20] = molecular target: Neu5Ac(a2-3)Gal(b1-4)GlcNAc(b1-3)Gal(b1-3)GlcNAc
# In short: as §1
# [21] = molecular target: Neu5Ac(a2-3)Gal(b1-4)GlcNAc(b1-3)Gal(b1-4)GlcNAc
# In short: as §1
# [22] = molecular target: Neu5Ac(a2-3)Gal(b1-4)GlcNAc(b1-3)Gal(b1-4)GlcNAc(b1-2)Man(a1-3)[Neu5Ac(a2-3)Gal(b1-4)GlcNAc(b1-3)Gal(b1-4)GlcNAc(b1-2)Man(a1-6)]Man(b1-4)GlcNAc(b1-4)GlcNAc
# In short: as §1
# [23] = molecular target: Neu5Ac(a2-3)Gal(b1-4)GlcNAc(b1-3)Gal(b1-4)GlcNAc(b1-3)Gal(b1-4)GlcNAc
# In short: as §1
# [24] = molecular target: Neu5Ac(a2-3)Gal(b1-4)GlcNAc(b1-3)Gal(b1-4)GlcNAc(b1-3)Gal(b1-4)GlcNAc(b1-2)Man(a1-3)[Neu5Ac(a2-3)Gal(b1-4)GlcNAc(b1-3)Gal(b1-4)GlcNAc(b1-3)Gal(b1-4)GlcNAc(b1-2)Man(a1-6)]GalNAc
# In short: as §1
# [25] = molecular target: Neu5Ac(a2-3)Gal(b1-4)GlcNAc(b1-3)Gal(b1-4)GlcNAc(b1-3)GalNAc
# In short: as §1
# [26] = molecular target: Neu5Ac(a2-3)Gal(b1-4)GlcNAc(b1-3)Gal(b1-4)GlcNAc(b1-3)[Neu5Ac(a2-3)Gal(b1-4)GlcNAc(b1-3)Gal(b1-4)GlcNAc(b1-6)]GalNAc
# In short: as §1
# [27] = molecular target: Neu5Ac(a2-3)Gal(b1-4)GlcNAc(b1-3)Gal(b1-4)GlcNAc(b1-6)[Gal(b1-3)]GalNAc
# In short: as §1
# [28] = molecular target: Neu5Ac(a2-3)Gal(b1-4)GlcNAc(b1-3)Gal(b1-4)[Fuc(a1-3)]GlcNAc
# In short: as §1
# [29] = molecular target: Neu5Ac(a2-3)Gal(b1-4)GlcNAc(b1-3)GalNAc
# In short: as §1
# [30] = molecular target: Neu5Ac(a2-3)Gal(b1-4)GlcNAc(b1-3)[Neu5Ac(a2-3)Gal(b1-4)GlcNAc(b1-6)]GalNAc
# In short: as §1
# [31] = molecular target: Neu5Ac(a2-3)Gal(b1-4)GlcNAc(b1-6)GalNAc
# In short: as §1
# [32] = molecular target: Neu5Ac(a2-3)Gal(b1-4)GlcNAc(b1-6)[Gal(b1-3)]GalNAc
# In short: as §1
# [33] = molecular target: Neu5Ac(a2-3)Gal(b1-4)GlcNAc(b1-6)[Neu5Ac(a2-3)Gal(b1-3)]GalNAc
# In short: as §1
# [34] = molecular target: Neu5Ac(a2-3)Gal(b1-4)GlcNAc6S
# In short: as §1
# [35] = molecular target: Neu5Ac(a2-3)Gal(b1-4)[Fuc(a1-3)]GlcNAc
# In short: as §1
# [36] = molecular target: Neu5Ac(a2-3)Gal(b1-4)[Fuc(a1-3)]GlcNAc(b1-2)Man
# In short: as §1
# [37] = molecular target: Neu5Ac(a2-3)Gal(b1-4)[Fuc(a1-3)]GlcNAc(b1-3)Gal
# In short: as §1
# [38] = molecular target: Neu5Ac(a2-3)Gal(b1-4)[Fuc(a1-3)]GlcNAc(b1-3)Gal(b1-4)GlcNAc
# In short: as §1
# [39] = molecular target: Neu5Ac(a2-3)Gal(b1-4)[Fuc(a1-3)]GlcNAc(b1-3)Gal(b1-4)[Fuc(a1-3)]GlcNAc(b1-3)Gal(b1-4)[Fuc(a1-3)]GlcNAc
# In short: as §1
# [40] = molecular target: Neu5Ac(a2-3)Gal(b1-4)[Fuc(a1-3)]GlcNAc(b1-3)GalNAc
# In short: as §1
# [41] = molecular target: Neu5Ac(a2-3)Gal(b1-4)[Fuc(a1-3)]GlcNAc(b1-6)[Gal(b1-3)]GalNAc
# In short: as §1
# [42] = molecular target: Neu5Ac(a2-3)Gal(b1-4)[Fuc(a1-3)]GlcNAc(b1-6)[Neu5Ac(a2-3)Gal(b1-3)]GalNAc
# In short: as §1
# [43] = molecular target: Neu5Ac(a2-3)Gal(b1-4)[Fuc(a1-3)]GlcNAc6S
# In short: as §1
# [44] = molecular target: Neu5Ac(a2-3)Gal6S(b1-4)GlcNAc
# In short: as §1
binder,measurement,setting,value
B1,glycan array binding signal (z-score),[1],-0.177
same,glycan array binding signal (z-score),[2],-0.087
same,glycan array binding signal (z-score),[3],-0.228
same,glycan array binding signal (z-score),[4],0.18
same,glycan array binding signal (z-score),[5],-0.052
same,glycan array binding signal (z-score),[6],-0.242
same,glycan array binding signal (z-score),[7],2.87
same,glycan array binding signal (z-score),[8],-0.048
same,glycan array binding signal (z-score),[9],-0.178
same,glycan array binding signal (z-score),Neu5Ac(a2-3)Gal(b1-4)Glc,5.24
same,glycan array binding signal (z-score),[10],-0.236
same,glycan array binding signal (z-score),[11],2.39
same,glycan array binding signal (z-score),[12],-0.086
same,glycan array binding signal (z-score),[13],-0.261
same,glycan array binding signal (z-score),[14],-0.111
same,glycan array binding signal (z-score),[15],-0.365
same,glycan array binding signal (z-score),[16],-0.266
same,glycan array binding signal (z-score),[17],-0.238
same,glycan array binding signal (z-score),[18],-0.331
same,glycan array binding signal (z-score),[19],-0.277
same,glycan array binding signal (z-score),[20],-0.297
same,glycan array binding signal (z-score),[21],-0.176
same,glycan array binding signal (z-score),[22],0.109
same,glycan array binding signal (z-score),[23],-0.178
same,glycan array binding signal (z-score),[24],-0.057
same,glycan array binding signal (z-score),[25],-0.304
same,glycan array binding signal (z-score),[26],-0.203
same,glycan array binding signal (z-score),[27],-0.345
same,glycan array binding signal (z-score),[28],-0.261
same,glycan array binding signal (z-score),[29],-0.104
same,glycan array binding signal (z-score),[30],-0.174
same,glycan array binding signal (z-score),[31],-0.195
same,glycan array binding signal (z-score),[32],-0.284
same,glycan array binding signal (z-score),[33],-0.264
same,glycan array binding signal (z-score),[34],-0.284
same,glycan array binding signal (z-score),[35],-0.209
same,glycan array binding signal (z-score),[36],-0.354
same,glycan array binding signal (z-score),[37],-0.332
same,glycan array binding signal (z-score),[38],0.031
same,glycan array binding signal (z-score),[39],-0.141
same,glycan array binding signal (z-score),[40],0.843
same,glycan array binding signal (z-score),[41],-0.247
same,glycan array binding signal (z-score),[42],0.387
same,glycan array binding signal (z-score),[43],-0.374
same,glycan array binding signal (z-score),[44],-0.175
